Measured values from PubChem BioAssay AID485364 (National Center for Advancing Translational Sciences (NCATS), 2010).
Among all 360,000 compounds or so, about 11,000 (3.1%) were called active. This list was built around the results that the source calls inconclusive (neither active nor inactive); the mix of calls is not that of the screen. Calls come from the whole dose curve; as a rule, active = well fitted inhibition curve with a large enough effect; inconclusive = small, poorly fitted or top-dose-only effect; inactive = no such curve, though single readings can be large or run the other way. No potency is given beside an inconclusive call; the fits are too rough.

Each molecule was assayed against Schistosoma mansoni thioredoxin glutathione reductase (TGR) (UniProt Q962Y6) (assay: qHTS Assay for the Inhibitors of Schistosoma Mansoni Peroxiredoxins). Conditions: purified TGR, DTNB reduction, TNB absorbance 405 nm; series mostly up to 114 µM.
How it was run: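 First, TGR (20 nM dispensed) and NADPH were mixed with compound. Second, a 15 min room-temperature incubation followed. Third, further NADPH and then DTNB were added to start the reaction. Finally, TNB absorbance was monitored kinetically.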
Note: nearly all actives have a fitted effect of over 60% in size.
Potency is the fitted concentration of half-maximal effect; tags give direction and shape of the fitted curve.

Row | SMILES | Potency
1 | COc1ccccc1C(CCN(Cc1cccs1)C(C)=O)c1ccco1 (stereo unspecified) | active: 12.6 µM
2 | Cc1ccccc1NC(=O)COC(=O)c1ccc(S(C)(=O)=O)c([N+](=O)[O-])c1 | active: 1.41 µM
3 | CC(C)(C)c1ccc(C(=O)NCCCNC(=O)c2ccccn2)cc1 | inactive
4 | Cc1ccc(-c2c(C)c(-c3ccc(F)cc3)nc(N)c2C#N)o1 | active: 28.2 µM
5 | Cc1ccc2nc(-c3ccccc3)cc(C(=O)N3CC(C)OC(C)C3)c2c1 (stereo unspecified) | inactive
6 | COc1ccc(/C(O)=C2/C(=O)C(=O)N(CCN(C)C)C2c2ccccn2)cc1OC (stereo unspecified) | active: 12.6 µM
7 | CC(=O)Nc1ccc(NC(=O)CSc2ccc(-c3sc(C)nc3C)nn2)cc1 | inconclusive [inhibitor, single point]
8 | COc1ccccc1C1/C(=C(/O)c2ccc(Cl)cc2)C(=O)C(=O)N1CCN1CCOCC1 (stereo unspecified) | inconclusive [inhibitor, partial curve]
9 | Oc1ccc2ccccc2c1C=NCc1ccccc1 | inconclusive [inhibitor, single point]
10 | O=C(CNc1ccc(F)cc1F)NC(=O)NCc1ccco1 | active: 28.2 µM
11 | CCCSc1ccc([C@H]2N[C@@](Cc3ccccc3)(C(=O)OC)[C@H]3C(=O)N(CC)C(=O)[C@@H]23)cc1 | inactive
12 | O=C(O)COc1ccc(NC(=O)c2ccc(NC(=O)c3ccco3)cc2)cc1 | inconclusive [inhibitor, partial curve]
13 | O=C(Nc1nccs1)c1cc(-c2ccco2)nc2ccccc12 | active: 56.2 µM
14 | CCCCCCC(=O)N(O)C1CC(=O)N(Cc2ccccc2)C1=O (stereo unspecified) | inconclusive [inhibitor, full curve, poor fit]
15 | O=C(Cn1c(=O)oc2cc(S(=O)(=O)N3CCCC3)ccc21)NC1CCCCC1 | inactive
16 | O=C(COc1coc(CN2CCc3ccccc3C2)cc1=O)Nc1cccc(F)c1 | inactive
17 | CCN(Cc1ccncc1)Cc1c(O)ccc2cc(Br)ccc12 | active: 1.78 µM
18 | CCCN(C(=O)CCOc1ccc(C(C)(C)C)cc1)c1c(N)n(Cc2ccccc2)c(=O)[nH]c1=O | inactive
19 | Cc1ccc2c(c1)=NC(=O)/C(=C/c1c(O)[nH]c(=O)[nH]c1=O)C=2 | inconclusive [inhibitor, full curve, poor fit]
20 | CCN(CC)S(=O)(=O)c1cccc(C(=O)N[C@H](C(=O)Nc2nc3ccccc3s2)C(C)C)c1 | inactive
21 | COc1ccccc1NC(=S)NCc1ccc2c(c1)OCO2 | inconclusive [inhibitor, partial curve]
